# Screen size: about 360,000 compounds; about 25,000 (6.9%) were called active. Inconclusive means that the source gave no clear call. Such entries were picked first, then a sample of the others. Calls follow the shape of the dose curve; as a rule, active = well fitted inhibition curve with a large enough effect; inconclusive = small, poorly fitted or top-dose-only effect; inactive = flat fitted curve, though single readings scatter. Potencies of inconclusive entries are doubtful fits and often do not repeat.
# Target: Luciferin 4-monooxygenase (Photinus pyralis) (UniProt P08659)
# Experiment: qHTS profiling assay for firefly luciferase inhibitor/activator using purifed enzyme and Km concentrations of substrates (counterscreen for miR-21 project); also: nearly all actives have a fitted effect of over 55% in size
# Settings: purified FLuc, luminescence inhibition; series mostly up to 57.5 µM
# How it was run: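 Biochemical qHTS of compounds, final roughly 60 µM downward over six points, against 10 nM purified firefly luciferase using Km concentrations of substrates (10 uM D-luciferin, 10 uM ATP) in Tris acetate pH 7.5 buffer; luminescence output.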
# Potency is read from the fitted curve at half-maximal effect; tags tell the direction and shape of the fitted curve.
# UniProt P08659, sequence (P08659 whole entry, looked up): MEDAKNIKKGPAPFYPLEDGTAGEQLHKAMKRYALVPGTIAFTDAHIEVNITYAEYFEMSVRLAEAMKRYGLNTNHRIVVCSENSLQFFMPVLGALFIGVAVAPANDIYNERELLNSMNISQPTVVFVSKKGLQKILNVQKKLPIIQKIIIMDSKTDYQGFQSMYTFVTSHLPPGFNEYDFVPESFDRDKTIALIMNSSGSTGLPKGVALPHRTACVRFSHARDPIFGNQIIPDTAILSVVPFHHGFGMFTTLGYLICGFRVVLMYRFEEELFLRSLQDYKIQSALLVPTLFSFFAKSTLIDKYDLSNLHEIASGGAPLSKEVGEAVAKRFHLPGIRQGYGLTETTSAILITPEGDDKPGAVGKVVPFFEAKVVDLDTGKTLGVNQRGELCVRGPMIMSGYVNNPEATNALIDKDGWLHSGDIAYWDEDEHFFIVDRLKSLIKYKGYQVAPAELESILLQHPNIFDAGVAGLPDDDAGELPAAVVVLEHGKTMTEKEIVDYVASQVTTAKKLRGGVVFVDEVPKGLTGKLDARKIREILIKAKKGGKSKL
row,SMILES,Potency
1,Cc1csc2nc(-c3cccc(NC(=O)C(C)C)c3)cn12,"inconclusive: 37.9 µM [inhibitor, single point]"
2,O=C(NCc1cccs1)C1CCN(S(=O)(=O)c2cccc([N+](=O)[O-])c2)CC1,inactive
3,COc1ccc(NC(=O)Nc2cc(C)ccc2OC)cc1,"inconclusive: 9.53 µM [inhibitor, partial curve]"
4,CCOC(=O)CNC1CC(=O)N(c2ccc(Br)cc2)C1=O (stereo unspecified),inactive
5,CCCOc1ccc(OCCSc2ncccn2)cc1,active: 6.75 µM
6,CCOC(=O)c1c(C)nc2c3ccccc3ccn12,active: 3.79 µM
7,COCCn1c(C)cc(C(=O)COC(=O)c2[nH]c(C)c(C(C)=O)c2C)c1C,inactive
8,C(=C\c1ccccn1)/c1cccnc1,"inconclusive: 21.3 µM [inhibitor, single point]"
9,CC(=O)Nc1ccccc1C(=O)N1CCN(Cc2ccccc2)CC1,inactive
10,CC1CCCCN1C(=O)CSCC(=O)Nc1nc(-c2cccs2)cs1 (stereo unspecified),"inconclusive: 37.9 µM [inhibitor, partial curve, poor fit]"
11,Cc1c(/C=N\NC(=O)c2c[nH]c3ccccc23)cnn1C,active: 12 µM
12,CC1(C(=O)OCC(=O)Nc2ccccc2Cl)CC1(Cl)Cl (stereo unspecified),"inconclusive: 26.9 µM [inhibitor, partial curve]"
13,CCC(=O)Nc1cc(C(=O)OCC(=O)c2ccccc2)ccc1C,active: 12 µM
14,O=C(Nc1cccc(Cl)c1)c1csc(-c2ccccc2)n1,"inconclusive: 12 µM [inhibitor, partial curve, poor fit]"
15,COC(=O)C1Cc2c([nH]c3ccccc23)CN1 (stereo unspecified),"inconclusive: 30.1 µM [inhibitor, partial curve, poor fit]"
16,CC[n+]1c(/C=C/c2ccc(N(C)C)cc2)ccc2ccccc21,"inconclusive: 26.9 µM [inhibitor, single point]"
17,Cc1ccc2onc(CNC(=O)N3CCN(c4cccc(C)c4C)CC3)c2c1,inactive
18,O=C(NCCc1ccc2c(c1)OCCO2)c1cc2ccccc2o1,"inconclusive: 26.9 µM [inhibitor, single point]"
19,Cc1ccc(C(=O)NCC2CCCN2S(=O)(=O)c2ccc(C)cc2)cc1 (stereo unspecified),"inconclusive: 21.3 µM [inhibitor, partial curve, poor fit]"
20,Cc1ccc(C2(c3ccccc3)NC(=O)N(CC(=O)NC3CCCCC3)C2=O)cc1C (stereo unspecified),inactive
21,C=CCOc1ccc(/C=N/N2C(=O)C(CC(=O)Nc3ccc(F)cc3F)SC2=NC)cc1 (stereo unspecified),"inconclusive: 13.5 µM [inhibitor, partial curve, poor fit]"
